Some of the results follow.
Target: no compound (DMSO)
Experiment: log2 fold change of degron read counts, EGFP-low vs EGFP+ sorted cells; higher = lower degron-EGFP level without compound (poor expression or instability)
Conditions: compound: DMSO control; 18 h
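Further: jurkat cells carrying a lentiviral library of mutant zinc finger degrons fused to EGFP plus mCherry, mCherry+ cells FACS sorted, degron abundance counted by next-generation sequencing.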

Sequence | log2 fold change of degron read counts
FGCEICGHDFTQKGNLLRHIKL | -0.763
FFCPICGRKFTQKGNLLRHIKL | -3.14
FHCDVCGANFTQKGNLLRHIKL | -1.56
FFCNICGAPFTQKGNLLRHIKL | 0.476
FVCPICGRPFTQKGNLLRHIKL | -1.47
FACEICGAWFTQKGNLLRHIKL | -0.346
FLCPQCGAVFTQKGNLLRHIKL | 0.0566
LGCEICGFGCTQKGNLLRHIKL | 0.38
FHCPICGRNFTQKGNLLRHIKL | -0.878
FRCDICGAWFTQKGNLLRHIKL | -0.943
FCCSVCGHNFTQKGNLLRHIKL | -0.544
FMCDQCGAQFTQKGNLLRHIKL | -0.708
FYCPICGHMFTQKGNLLRHIKL | 0.149
FTCDQCGAYFTQKGNLLRHIKL | -0.555
FTCDICGAAFTQKGNLLRHIKL | -0.544
FFCPICGRYFTQKGNLLRHIKL | 0.0171
FICEQCGAMFTQKGNLLRHIKL | -1.45
FTCPQCGAGFTQKGNLLRHIKL | -0.586
FWCDICGAVFTQKGNLLRHIKL | -0.0432
FCCNQCGHCFTQKGNLLRHIKL | 0.0232
FDCEICGAFFTQKGNLLRHIKL | -0.244
FWCEICGANFTQKGNLLRHIKL | -1.27
FWCNVCGAMFTQKGNLLRHIKL | 0.587
FWCPICGRDFTQKGNLLRHIKL | 0.518
FYCEQCGAYFTQKGNLLRHIKL | -0.631

Sequence | log2 fold change of degron read counts
FWCNQCGAYFTQKGNLLRHIKL | 1.03
FSCPICGAHFTQKGNLLRHIKL | 0.39
FQCEICGHSFTQKGNLLRHIKL | -2.08
FCCPICGHVFTQKGNLLRHIKL | 0.439
FECPICGAWFTQKGNLLRHIKL | -0.164
FECPICGASFTQKGNLLRHIKL | -1.36
LDCPICGFFCTQKGNLLRHIKL | 1.91
FLCDICGAEFTQKGNLLRHIKL | -2.83
FWCEQCGAKFTQKGNLLRHIKL | -0.539
FGCSVCGHDFTQKGNLLRHIKL | 0.146
LYCEICGFICTQKGNLLRHIKL | 1.62
FDCPICGASFTQKGNLLRHIKL | -0.852
LNCEICGFKCTQKGNLLRHIKL | -0.414
FTCDQCGAWFTQKGNLLRHIKL | -1.19
FFCPICGHTFTQKGNLLRHIKL | -0.208
FLCNQCGAFFTQKGNLLRHIKL | 0.874
FYCNVCGAGFTQKGNLLRHIKL | -0.738
FICPICGAEFTQKGNLLRHIKL | -0.93
FQCPVCGAWFTQKGNLLRHIKL | 0.456
FQCPQCGANFTQKGNLLRHIKL | -0.851
FACPICGHGFTQKGNLLRHIKL | -0.3
FFCDVCGAIFTQKGNLLRHIKL | 0.0146
LYCEICGFDCTQKGNLLRHIKL | 0.286
LECEICGFYCTQKGNLLRHIKL | 0.782
FRCPVCGAGFTQKGNLLRHIKL | 0.0283

From the supplement of paper PMC12645437, “Orthogonal IMiD-Degron Pairs Induce Selective Protein Degradation in Cells” (ACS Chemical Biology, 2025)
